Assay results as given in PubChem BioAssay AID1794842 (National Center for Advancing Translational Sciences (NCATS), 2023).
Screen size: about 2,800 compounds; fewer than 10 were called active. Calls follow the shape of the dose curve; as a rule, active = well fitted curve in the direction sought with a large enough effect; inconclusive = small, poorly fitted or top-dose-only effect, or another doubt; inactive = no such curve, though single readings can be large or run the other way. The list shows a part of the results.

target: Metallo-beta-lactamase type 2 (Klebsiella pneumoniae) (UniProt C7C422); test: qHTS to identify inhibitors of the New Delhi Metallo-beta-lactamase (NDM): Meropenem screen against the machine-based learning selections.; also: % of control where 0% means no effect; details: Purified NDM-1, meropenem hydrolysis, absorbance 300 nm; at 38.4 µM (top of the series) unless noted
Outline: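 Hydrolysis by 2 nM NDM-1 was followed by absorbance after >30 min compound preincubation in HEPES pH 7.0 buffer with 1 uM Zn2SO4. For nitrocefin (16.7 uM, 15 min, 485 nm) and meropenem (50 uM, 30 min, 300 nm), each substrate ran on separate plates.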

UniProt C7C422, sequence (C7C422 whole entry, looked up): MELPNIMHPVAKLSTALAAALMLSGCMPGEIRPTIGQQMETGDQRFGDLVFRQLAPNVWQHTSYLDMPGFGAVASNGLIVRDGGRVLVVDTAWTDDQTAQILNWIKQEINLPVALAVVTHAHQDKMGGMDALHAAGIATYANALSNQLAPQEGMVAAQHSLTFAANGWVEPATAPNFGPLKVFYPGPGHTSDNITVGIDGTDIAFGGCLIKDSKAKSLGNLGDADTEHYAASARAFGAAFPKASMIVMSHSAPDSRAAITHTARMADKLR

Activity change, negative = inhibition, inactive:
COc1cccc(-c2cc(C(=O)NCCNc3nc(C)cc(=O)[nH]3)[nH]n2)c1 5.51%
O=C(NC1CCCCC1)O[C@@H]1CO[C@H]2[C@@H]1OC[C@@H]2n1nnnc1-c1ccc2c(c1)OCCO2 -0.38%
O=c1cc(-c2ccncc2)oc2c(-c3cccc(O)c3)nccc12 8.96% [at 57.5 µM]
COc1ccc(-c2[nH]nc3ncc(-c4ccccc4O)nc23)cc1F -1.39% [at 57.5 µM]
Cc1nc(CCC(=O)N2CCC(Cc3ccc(C(=O)O)cc3)C2)n[nH]1 (configuration not stated) 5.45%
CCCN(CC1CCOC1)C(=O)Nc1cccc(F)c1C (configuration not stated) 0.745%
Cn1c(COc2cccc(C(F)(F)F)c2Cl)nnc1C1CC(N)C1 (configuration not stated) -0.252%
Cc1ccc2c(c1)c(Cn1cnc(-c3ccccc3)c1-c1cnc[nH]1)nn2C 3.94%
CN(Cc1ccccc1)Cc1cn([C@H]2CO[C@H]3[C@@H]2OC[C@@H]3NCc2ccccc2)nn1 0.49% [at 57.5 µM]
CCCC1(CO)CCCN(CC(=O)NC(C)(C)CC)C1 (configuration not stated) 1.66%
COc1ccc(CN2CC3(CCN(C(=O)Cc4c[nH]c5ccccc45)CC3)C2=O)cc1 -1.03%
O=C(O)CN1CCC[C@]2(C(=O)O)CN(Cc3cccc(O)c3)CC[C@@H]12 67.1%
C=CCCC(CN1CCCOCC1)Oc1ccc(-c2ccccc2)nn1 (configuration not stated) -1.94%
Cc1nc(C)c(C(=O)NCC(=O)N2CCCCCNC(=O)CC2c2ccccc2)s1 (configuration not stated) 0.419%
Cc1noc2c(Nc3ccc(C(N)=O)cc3)cc(-c3ccsc3)nc12 6.78% [at 57.5 µM]
COc1ccc(NC2CCCN(C(=O)c3ccc(S(N)(=O)=O)cc3)C2)cc1 (configuration not stated) -0.314%
COc1ccc(CN[C@H]2[C@H](O)[C@@H](N(C)CCc3ccccn3)[C@@H]3OC[C@H]2O3)cc1 -0.0233% [at 57.5 µM]
CN(Cc1ccc(F)cc1)c1ccc2ncc(Nc3cccc(N[S+](C)(=O)[O-])c3)n2n1 19.9%
Cc1nc(C2CCCCN2C(=O)Cc2ccccc2)n[nH]1 (configuration not stated) -0.508%
O=C1N(CCCCOc2ccccc2)c2ccccc2NC12CCNCC2 -2.04%
CN1C[C@H](NCC2CC2)CCC[C@@H](C(=O)NCc2cc(F)cc(F)c2)CC1=O 1.42% [at 57.5 µM]
COc1ccc(CNC(=O)C[C@@H]2C[C@H]3O[C@H](CNC4CCNCC4)[C@@H](O)[C@H]3O2)cc1 12.7% [at 57.5 µM]
